Assay results as given in the antibiotic and cytotoxicity screens of Wong et al. (2023).
The other results are listed elsewhere or left out.

system: S. aureus RN4220; assay: growth inhibition call (relative growth <= 0.2); conditions: 50 µM

Growth inhibition call, inactive:
O=C(C[C@@H]1C[C@@H]2c3cc(NC(=O)c4ccc5c(c4)OCO5)ccc3O[C@@H]2[C@@H](CO)O1)NCc1ccc(Oc2ccccc2)cc1
C[C@H](CO)N1C[C@H](C)[C@@H](CN(C)S(=O)(=O)c2ccccc2F)Oc2ncc(C#Cc3ccncc3)cc2C1=O
CCCNC(=O)Cn1c(=O)n(C)c2ccccc21
CO[C@H]1CN(C)C(=O)c2cc(NC(=O)NC3CCCCC3)ccc2OC[C@H](C)N(CCc2ccccc2)C[C@@H]1C
CCCN(C)C[C@H]1OCCCC[C@@H](C)Oc2ccc(NC(=O)c3ccccc3)cc2C(=O)N([C@H](C)CO)C[C@H]1C
Cc1noc(C)c1S(=O)(=O)N(C)C[C@@H]1OCCCC[C@@H](C)Oc2ccc(NC(=O)Nc3ccccc3)cc2C(=O)N([C@H](C)CO)C[C@H]1C
CCCC(=O)Nc1ccc2c(c1)C(=O)N(C)C[C@@H](OC)[C@H](C)CN(S(=O)(=O)c1cn(C)cn1)[C@H](C)CO2
CN(C)CCOC(c1ccccc1)c1ccccc1.Cl
COc1ccc2c3c([nH]c2c1)[C@@H](CO)N(Cc1ccncc1)C[C@]13CCN(CC1)Cc1ccc(cc1)-c1ccccn1
O=C(NCc1nc2ccccc2[nH]1)C1=C[C@H](c2ccc(Br)cc2)C[C@H](OCc2ccc(CO)cc2)O1
C[C@H](O)C#Cc1ccc2c(c1)O[C@@H](CN(C)C(=O)C1CCCCC1)[C@@H](C)CN([C@@H](C)CO)S2(=O)=O
